Data: the supplement of paper PMC12645437, “Orthogonal IMiD-Degron Pairs Induce Selective Protein Degradation in Cells” (ACS Chemical Biology, 2025)
The other results are listed elsewhere or left out.

B1: Q9UKT9 (peptide)
chain: FSCPVCGAYFTQKGNLLRHIKL
B2: Q9UKT9 (peptide)
chain: LHCNQCGFVCTQKGNLLRHIKL
B3: Q9UKT9 (peptide)
chain: FWCNQCGRWFTQKGNLLRHIKL
B4: Q9UKT9 (peptide)
chain: FTCDVCGAVFTQKGNLLRHIKL
B5: Q9UKT9 (peptide)
chain: FICPVCGAPFTQKGNLLRHIKL
B6: Q9UKT9 (peptide)
chain: FGCEICGAHFTQKGNLLRHIKL
B7: Q9UKT9 (peptide)
chain: FNCEICGRKFTQKGNLLRHIKL
B8: Q9UKT9 (peptide)
chain: FRCNQCGAEFTQKGNLLRHIKL
B9: Q9UKT9 (peptide)
chain: FSCPQCGALFTQKGNLLRHIKL
B10: Q9UKT9 (peptide)
chain: FECDVCGAEFTQKGNLLRHIKL
B11: Q9UKT9 (peptide)
chain: FYCEICGASFTQKGNLLRHIKL
B12: Q9UKT9 (peptide)
chain: FWCPICGHWFTQKGNLLRHIKL
B13: Q9UKT9 (peptide)
chain: FMCNQCGHAFTQKGNLLRHIKL
B14: Q9UKT9 (peptide)
chain: FKCNQCGHYFTQKGNLLRHIKL
B15: Q9UKT9 (peptide)
chain: FTCEQCGAEFTQKGNLLRHIKL
B16: Q9UKT9 (peptide)
chain: FACEICGRFFTQKGNLLRHIKL
B17: Q9UKT9 (peptide)
chain: FLCPICGRTFTQKGNLLRHIKL
B18: Q9UKT9 (peptide)
chain: FNCSVCGHPFTQKGNLLRHIKL
B19: Q9UKT9 (peptide)
chain: LWCEICGFKCTQKGNLLRHIKL
B20: Q9UKT9 (peptide)
chain: FDCNICGATFTQKGNLLRHIKL
B21: Q9UKT9 (peptide)
chain: FKCSVCGHMFTQKGNLLRHIKL
B22: Q9UKT9 (peptide)
chain: FNCDICGAWFTQKGNLLRHIKL
B23: Q9UKT9 (peptide)
chain: FVCDICGASFTQKGNLLRHIKL
B24: Q9UKT9 (peptide)
chain: FECPICGRCFTQKGNLLRHIKL
B25: Q9UKT9 (peptide)
chain: FECSVCGHEFTQKGNLLRHIKL
B26: Q9UKT9 (peptide)
chain: FSCPVCGATFTQKGNLLRHIKL
B27: Q9UKT9 (peptide)
chain: LMCPICGFKCTQKGNLLRHIKL
B28: Q9UKT9 (peptide)
chain: FDCEICGRTFTQKGNLLRHIKL
B29: Q9UKT9 (peptide)
chain: LACNQCGFACTQKGNLLRHIKL
B30: Q9UKT9 (peptide)
chain: FSCDVCGAGFTQKGNLLRHIKL
B31: Q9UKT9 (peptide)
chain: LLCPICGFTCTQKGNLLRHIKL
B32: Q9UKT9 (peptide)
chain: FRCNVCGARFTQKGNLLRHIKL
B33: Q9UKT9 (peptide)
chain: FNCDVCGAHFTQKGNLLRHIKL
B34: Q9UKT9 (peptide)
chain: FICPVCGASFTQKGNLLRHIKL
B35: Q9UKT9 (peptide)
chain: FECSVCGHFFTQKGNLLRHIKL
B36: Q9UKT9 (peptide)
chain: LTCPICGFRCTQKGNLLRHIKL
B37: Q9UKT9 (peptide)
chain: FRCEICGRNFTQKGNLLRHIKL
B38: Q9UKT9 (peptide)
chain: FWCDVCGANFTQKGNLLRHIKL
B39: Q9UKT9 (peptide)
chain: FGCPICGASFTQKGNLLRHIKL
B40: Q9UKT9 (peptide)
chain: FRCNQCGHFFTQKGNLLRHIKL
B41: Q9UKT9 (peptide)
chain: FFCPICGRHFTQKGNLLRHIKL
B42: Q9UKT9 (peptide)
chain: FYCEVCGADFTQKGNLLRHIKL
B43: Q9UKT9 (peptide)
chain: FTCPICGHTFTQKGNLLRHIKL
B44: Q9UKT9 (peptide)
chain: FSCNVCGAEFTQKGNLLRHIKL
B45: Q9UKT9 (peptide)
chain: FSCNQCGREFTQKGNLLRHIKL
B46: Q9UKT9 (peptide)
chain: FACPICGHSFTQKGNLLRHIKL
B47: Q9UKT9 (peptide)
chain: FRCDVCGAQFTQKGNLLRHIKL
B48: Q9UKT9 (peptide)
chain: LTCPICGFNCTQKGNLLRHIKL
B49: Q9UKT9 (peptide)
chain: FMCEICGHAFTQKGNLLRHIKL
B50: Q9UKT9 (peptide)
chain: FMCPICGRLFTQKGNLLRHIKL

Each sequence was assayed against no compound (DMSO) (assay: log2 fold change of degron read counts, EGFP-low vs EGFP+ sorted cells; higher = lower degron-EGFP level without compound (poor expression or instability)). Conditions: compound: DMSO control; 18 h.
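Further: jurkat cells carrying a lentiviral library of mutant zinc finger degrons fused to EGFP plus mCherry, mCherry+ cells FACS sorted, degron abundance counted by next-generation sequencing.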

Sequence	log2 fold change of degron read counts
B1	0.687
B2	0.234
B3	1.44
B4	-1.14
B5	-0.0999
B6	-0.853
B7	-0.351
B8	-1.28
B9	-0.646
B10	-3.72
B11	-0.911
B12	1.87
B13	-0.386
B14	-0.446
B15	-3.11
B16	-0.99
B17	-0.815
B18	-0.65
B19	1.1
B20	-1.96
B21	-0.517
B22	-0.169
B23	-2.18
B24	-0.12
B25	-1.36

Sequence	log2 fold change of degron read counts
B26	-0.813
B27	0.975
B28	-1.94
B29	0.356
B30	-1.7
B31	0.000522
B32	-0.541
B33	-0.89
B34	-1
B35	-0.719
B36	0.656
B37	-2.68
B38	-0.501
B39	-0.0511
B40	0.583
B41	-0.556
B42	-1.67
B43	-0.654
B44	-1.29
B45	-0.844
B46	-0.726
B47	-2.33
B48	0.657
B49	-1.48
B50	0.65
